Reference: the RNAGym collection of RNA variant scans (doi:10.1101/gad.245936.114)
Variants at the background level are over-represented here.

B1: tRNA (parent)
chain: CUCUCGGUAGCCAAGUUGGUUUAAGGCGCAAGACUUUAAUUUAUCACUACGAAAUCUUGAGAUCGGGCGUUCGACUCGCCCCCGGGAGAUUUUUUCCUCGAGCAA

Variants of: B1
Assay: nonsense suppression (GFP-seq) (ratio to wild type); higher = more function; SUP4oc tRNA, yeast GFP reporter sort-seq
Outline: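 Raffinose/galactose medium with 80 mg/L adenine was used to grow yeast carrying genome-integrated tRNA variants (~3% random-mutation library), RFP, and a galactose-driven GFP ochre reporter. Cells went into GFP/RFP bins, which were Illumina-sequenced, and variants with ≥100 reads and ≥30 cells were scored. Nonsense suppression (GFPSEQ) is the per-bin median GFP/RFP weighted by estimated cell share and expressed relative to the unmutated parent tRNA.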

Variant | nonsense suppression
U8G C27A G88U | ≤ 0.026
U8C G25U | ≤ 0.026
A9G C29G U58C U71C | ≤ 0.026
A9U A13U G86A | ≤ 0.026
U8G C82G C83U G88C | ≤ 0.026
A9C A60U | 0.575
A9G U57A U58C | ≤ 0.026
U8G A33G C80U G84A | ≤ 0.026
U8G A54G | ≤ 0.026
A9G G67A | ≤ 0.026
U8G C72G C83U | ≤ 0.026
A9C C12G U22G | ≤ 0.026
U8C G18U U22A U35G U71A C80G | ≤ 0.026
A9C C12A A14U A31G G32A C68U | ≤ 0.026
U8G G19U C81A | ≤ 0.026
A9G C11A A30G G85A G86U | ≤ 0.026
A9G G59A U76A | ≤ 0.026
A9C C11A C75A | ≤ 0.026
U8C U58A G66C | ≤ 0.026
U8G G25A C34A | ≤ 0.026
U8G G15C | ≤ 0.026
A9G A54C U58A G84A | ≤ 0.026
A9G G61A G85A | 0.303
U8G A9G A62C C77A | ≤ 0.026

Variant | nonsense suppression
A9G A30C U35C | ≤ 0.026
U8G U21A C82U | ≤ 0.026
A9U A23U G59U G67U G78U C83A | ≤ 0.026
A9G U57G U58A C64G C77G | ≤ 0.026
A9G C34U G65A | ≤ 0.026
A9G C27G C29G G73C C80A A87G | ≤ 0.026
A9U A13G U22G A31C U63C C68U A74U G78U C79A C80A | ≤ 0.026
A9G G78U | ≤ 0.026
U8G C11G U16A C56G A60C G61U | ≤ 0.026
A9G A62G C77G | ≤ 0.026
U8G G18A A74U | ≤ 0.026
U8G A23G G67A U71C C77U | ≤ 0.026
A9C A23U G59U G78U C82G | ≤ 0.026
A9C A30C G32A | ≤ 0.026
U8G U58A G65C | ≤ 0.026
A9G C11G A33G U76A | ≤ 0.026
U8G U21G A23C | ≤ 0.026
A9G C11G A30C C34G | ≤ 0.026
A9C A31G | 0.857
A9U A13C U17A U35A C79A | ≤ 0.026
A9G G18C G78C | ≤ 0.026
A9G U16A C34G C77G | ≤ 0.026
U8C U63A | 0.0619
A9C G26U C27U U76C C82U | ≤ 0.026

Variant | nonsense suppression
A9G A13G | 0.205
A9C C82U G84A | ≤ 0.026
A9C A62U | ≤ 0.026
A9C G18A A74C | ≤ 0.026
U8C G25U A60U | ≤ 0.026
A9C A23C A74G | ≤ 0.026
A9G U22G C34G C72U | ≤ 0.026
U8G G19U G28U | ≤ 0.026
A9G C27G | ≤ 0.026
A9C A24U C75G | ≤ 0.026
A9G A14U G59C U71C | ≤ 0.026
A9C A14U G19U | ≤ 0.026
U8C U22A | ≤ 0.026
A9G G15A G19U A31C U55C U58G | ≤ 0.026
U8G G10A U20G | ≤ 0.026
U8G G25C U57C G69A | ≤ 0.026
U8G A9C C83G | ≤ 0.026
U8G G26A C56U C64G G66U G78U A89U | ≤ 0.026
A9C G10A U16C | ≤ 0.026
U8C U17G A60C | ≤ 0.026
A9C C27U U55G C77U C79U | ≤ 0.026
A9G A33U A62G | ≤ 0.026
U8C G69U | ≤ 0.026
U8C G69A | ≤ 0.026

Variant | nonsense suppression
A9G G32C | ≤ 0.026
A9G G32U | ≤ 0.026
A9C C75A G88A | ≤ 0.026
A9C A13U U71C | ≤ 0.026
U8C G65A C72G | ≤ 0.026
A9G G18C C29U | ≤ 0.026
U8G A13G U16A A31G G73C | ≤ 0.026
U8G G78U | ≤ 0.026
U8G G78C | ≤ 0.026
A9G U17A A33G U70A C77G | ≤ 0.026
A9U A23U C82G | ≤ 0.026
A9G A14C A54G | ≤ 0.026
A9G C11U G61C | ≤ 0.026
A9C C80G G88A | ≤ 0.026
A9C U20G U21G G86A | ≤ 0.026
A9G G10U U35C A54C U57A G84C | ≤ 0.026
U8G U16G U35G C72A | ≤ 0.026
A9G A13G G19U G85A | ≤ 0.026
U8G C29U C64G G69A C82G | ≤ 0.026
A9G C34G | ≤ 0.026
U8G A9C C12G U63G C81A | ≤ 0.026
A9C U17G C34U C77U C83G | ≤ 0.026
A9U A13G C81G | ≤ 0.026
U8G C11A A23U G84A | ≤ 0.026

Variant | nonsense suppression
A9G A33U C34G U71A | ≤ 0.026
U8G U58G U71A | ≤ 0.026
A9G A33U C80U | ≤ 0.026
U8C U58A G73U | ≤ 0.026
A9G G26U A62G G78C | ≤ 0.026
A9C C11U U70G | ≤ 0.026
U8G A31G | ≤ 0.026
U8G A31U | ≤ 0.026
A9G C11U G67C C68G C80G | ≤ 0.026
A9G U71G | ≤ 0.026
A9C G66U | ≤ 0.026
A9C C12G G18C G25C | ≤ 0.026
U8C U20C G69A | ≤ 0.026
A9C C34A U57C | ≤ 0.026
U8C G73A C81U | ≤ 0.026
U8G G25C C68U | ≤ 0.026
A9G C12U A33U | ≤ 0.026
A9G C11G U57C | ≤ 0.026
U8C G32U U58G A89C | ≤ 0.026
A9C G26A A31G A54G G88U A89G | ≤ 0.026
U8C U55A | ≤ 0.026
A9C A30U | 0.0886
A9C G32U G61U | ≤ 0.026
U8C U55A C80A G84A | ≤ 0.026

Variant | nonsense suppression
U8G C56G C77G | ≤ 0.026
U8G C72U U76G G88A | ≤ 0.026
U8G G19U U20A C80A G88C | ≤ 0.026
U8G U71C | ≤ 0.026
A9G U58A A89C | ≤ 0.026
U8G C12A A13C A30G | ≤ 0.026
U8G G19U G28U G78A | ≤ 0.026
A9G A89C | ≤ 0.026
A9G A14U | ≤ 0.026
A9C G10C C12U | ≤ 0.026
A9C G15C G59A U70C | ≤ 0.026
A9G C79G | ≤ 0.026
A9G U22A U35G | ≤ 0.026
A9G A13G U70A C82U | ≤ 0.026
A9G C34G U57C | ≤ 0.026
U8C G67A | ≤ 0.026
A9G U17C G78U | ≤ 0.026
A9G U20A C34G C56A U58G G65C | ≤ 0.026
U8G A60U G61C G69C | ≤ 0.026
U8C U17G G26C U55G G61A G84C | ≤ 0.026
A9C G61A C81A | ≤ 0.026
U8G C12U A31U C81A | ≤ 0.026
A9G U57G | ≤ 0.026
A9C C11G A30G | ≤ 0.026

Variant | nonsense suppression
U8C G26A | ≤ 0.026
A9C C56U | ≤ 0.026
A9C C11U G67A | ≤ 0.026
A9G A24G U55A C75A | ≤ 0.026
U8G G26A U70G U71A U76A | ≤ 0.026
A9C C83A | ≤ 0.026
A9G C12G C34G G86C | ≤ 0.026
A9G G65A | ≤ 0.026
A9G G26C G59U | ≤ 0.026
A9G G32A U58G G85A | ≤ 0.026
A9G U63C G69A | ≤ 0.026
A9C U16C G88C | ≤ 0.026
U8G G19U U22C G32U A33G | ≤ 0.026
A9G G15A A23U U63A | ≤ 0.026
U8G A9G C11A A24G | ≤ 0.026
U8C U21A G59U | ≤ 0.026
A9G G59U C83U G86C | ≤ 0.026
A9G G69U G73C | ≤ 0.026
A9C C56A G65A G78C | ≤ 0.026
U8G A9U G88A | ≤ 0.026
A9C U57A | ≤ 0.026
A9C U57C | ≤ 0.026
A9U A14G G61A U63C G86C | ≤ 0.026
